# Assay results published in ChEMBL document CHEMBL4888484, “Replenishing the malaria drug discovery pipeline: Screening and hit evaluation of the MMV Hit Generation Library 1 (HGL1) against asexual blood stage Plasmodium falciparum ,using a nano luciferase reporter read-out” (2022).
# Hit rate of the full screen: of about 150,000 compounds, about 540 (0.36%) showed an effect of 50% or more. The list shows a part of the results.
# System: Plasmodium falciparum
# Assay: Primary screen in NF54 nanoGlo assay, in single point, at 2uM, 72h; a lower Z score goes with more inhibition
# Format: functional, Erythrocyte
# Conditions: timepoint 72 hour
SMILES,% Inhibition [%],Z score
Cc1ccc(OCCCN(C)C(=O)CCn2cncn2)cc1C,4,-0.76
CC[C@@H](C(=O)NCc1ccc(F)cc1)N(c1ccc(Cl)cc1)c1nc(-c2ccc(F)cc2)cs1,-11,1.24
c1cc(-c2noc(-c3ccoc3)n2)c2nccn2c1,33,-3.71
CCC(CC)(CO)CN(C)Cc1cccc(F)c1C(F)(F)F,-1,0.14
CCOCc1nc(C)cc(-n2ccnc2)n1,-10,1.95
CC[C@H](NC(=O)c1occc1C(C)C)C1CCOCC1,-15,2.66
C[C@H](Oc1cc(Cl)cc(Cl)c1)C(=O)N1CCNC(=O)CC1,-8,1.14
CCc1oc(C(=O)O)cc1CN1CC[C@@](O)(Cc2ccc(F)cc2)C1,-8,1.14
CC(C)CCOC1CCN(C(=O)C2CC(=O)N(C)C2)C1 (centres undefined),0,-0.01
N[C@@H](CNc1ncc(Br)cc1Cl)C1CC1,4,-0.61
CC(NC(=O)c1cc2ccccc2cc1O)C1CCCOC1 (centres undefined),-2,0.22
COc1cccc(S(=O)(=O)N2CCN(Cc3nc(-c4cccc(Cl)c4)oc3C)CC2)c1,-6,0.83
O=C(N[C@H]1CC(=O)N(c2ccc3c(c2)OCCO3)C1)C1CCCC1,-13,2.38
COc1c(Cl)cc(NC(=O)N[C@@]2(C)CCOC2)cc1Cl,0,0
O=C(N[C@@]1(C(F)(F)F)N=C(c2ccccc2)N(C2CCCCC2)C1=O)C1CCCCC1,-4,0.46
CCN1CC(CN(C)C(=O)[C@@H]2CCCN2C(C)=O)Oc2ccccc21 (some centres undefined),1,-0.17
CN1CC2(CCN(C(=O)c3cnc[nH]c3=O)CC2)C[C@@H](c2ccccc2)C1=O,-8,0.97
CC(C)(NC(=O)c1ccsc1)c1nc2c(c(C(N)=O)n1)OCCO2,-4,0.58
Cc1noc(-c2c(C)[nH]c(C)c2S(=O)(=O)Nc2ccc(F)c(C)c2)n1,-12,2.41
O=C(NCCCN1CCCC1=O)c1ccc2nc(-c3ccc(F)cc3)c(-c3ccc(F)cc3)nc2c1,-14,1.61
C[C@H](NC(=O)N(C)[C@@H]1CCC[C@H]1O)c1ccc(F)cc1Cl,5,-0.67
CC1(C)CCCC[C@@H]1NCc1cn(C(C)(C)C)nn1,12,-1.56
Cc1cccc2cc(C(=O)N3C[C@H]4CC[C@@H](C3)N(CC3CCC3)C4=O)oc12,-25,2.34
O=C(CNc1ccccc1Oc1ccccc1)N1CCN(c2ccccc2)CC1,-10,2
O=S(=O)(Cc1cc(F)ccc1Cl)NCCN1CCCC[C@@H]1CO,0,0.05
CC(OCC(F)(F)F)C(=O)NC1CCS(=O)(=O)C1 (centres undefined),-8,1.57

SMILES,% Inhibition [%],Z score
CC(=O)c1[nH]c(C)c(C(=O)N2CCC(O)(c3cccc(C(F)(F)F)c3)CC2)c1C,-15,2
CCc1nn(C)c(CC)c1CN1CC[C@H](c2nccn2C)C1,-2,0.19
O=C(NCc1nnc2n1CCC2)N1CCOCC1CC(O)c1cccs1 (centres undefined),-9,0.97
CCOC(=O)[C@H](CNC(=O)CCC1CCCC1)Cc1ccccc1,-6,0.94
Cc1cccc(N2CCN(C(=O)CCc3nc(CS(=O)(=O)c4ccccc4)no3)C[C@@H]2C)c1,5,-0.93
Cc1cc(C(C)C(=O)NC2CCN(C)C2=O)c(C)o1 (centres undefined),-11,1.91
COc1nc2c(cc1CN[C@@H](C)CO)C(=O)N(C1CCCC1)C2,1,-0.08
O=C(Nc1ccc(Oc2ccc3ccccc3c2Cl)c(Cl)c1)c1cc(Cl)ccc1O,28,-3.13
O=C1CCCc2nc3[nH]n(-c4ccccc4)c(=O)c3cc21,32,-4.62
CCOc1ccc(C2C(C(=O)N3CCN(c4ccccc4F)CC3)c3ccccc3C(=O)N2CCN2CCOCC2)cc1 (centres undefined),-13,1.96
CC1(N2CCOCC2)CCN(S(=O)(=O)c2cncc(C#N)c2)CC1,2,-0.42
COc1cc(CNC(=O)c2cc(Cc3ccccc3)n[nH]2)ccc1C,5,-0.59
O=C(N[C@H]1CCN(c2ccc(C(F)(F)F)cn2)C[C@@H]1O)c1cnccn1,-16,2.78
CCn1cnc2c(N3CC(c4nc(-c5ccccc5)no4)C3)ncnc21,0,-0.01
CCN1C[C@@H](C(=O)N2CCN(c3ccccc3OC)CC2)CC1=O,-4,0.36
COc1ccc(NC(=O)C(=O)N[C@H](c2ccccc2OC)c2nccn2C)c(OC)c1,-15,1.65
O=c1c2ccccc2nnn1C[C@H]1CC[C@H](C(=O)N2CCN(Cc3ccccc3)CC2)CC1,-16,2.33
CC(C)Cc1cc(C(=O)N2CCN(C)C[C@@H]2c2ccccc2)nc(N)n1,-15,1.66
Nc1nc(COC(=O)[C@H]2CC(=O)N(Cc3ccccc3Cl)C2)nc(Nc2ccccc2)n1,3,-0.42
C[C@@H](CS(C)(=O)=O)N(C)C(=O)C1CC=CC1,0,0.04
Cc1cc(OCCN2CCCCC2)nn1C,-20,2.09
C[C@H](NC(=O)N1CCn2cncc2C1)c1cnn(C)c1,-5,0.84
O=C(NCC1CCCO1)C1Cc2cc(C(F)(F)F)ccc2N2CCN(c3ccccc3)CC12 (centres undefined),9,-1.09
Cc1noc2nc(C3CC3)cc(C(=O)N3C(C(=O)O)CC4CCCCC43)c12 (centres undefined),3,-0.31
O=C(NCC[C@@H]1CCCC[C@@H]1O)c1ccnc(-n2cccn2)c1,-23,3.1
CC(C)(C)OC(=O)N[C@H]1CCN(c2ncc(Br)cn2)C1,9,-0.98
